In the supplement of paper PMC11417369:
± gives the standard deviation of the averaged measurements. This is one part of the list.

What follows are sequences tested on PfAP2-EXP AP2 domain (GST-tagged) (assay: gcPBM binding intensity (ln(normalized median fluorescence intensity)); higher = stronger DNA binding).
Procedure, shortened: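 GST-fused DNA-binding domains of P. falciparum, expressed in E. coli, were applied at about 25 μg on average for 1 h to an Agilent 4 × 180k array of primer-extended double-stranded 36-bp intergenic genomic probes and negative controls. Binding intensity is the highest Masliner-normalised natural-log median intensity across replicate spots of either probe orientation, measured with Alexa488 anti-GST antibody and a 488 nm scan.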

“CAATACTAATTGTATACACACAAAAATATACCATAT [CACACA_site3326]” and “AATTGATACCTTACATGTACATAATATATATAAATA [XGTACX_site321]” are within error of each other in “gcPBM binding intensity (ln)” value: 8.57 ± 0.38 for the first, 8.97 ± 0.47 for the second.

“GAACCATTTTTTGGTATACACACGTAATTATATAAT [CACACA_site8552]” and “TTTTTACATACAAATTAACACACATATAGAAAAGAG [CACACA_site8570]” are within error of each other in “gcPBM binding intensity (ln)” value: 8.56 ± 0.42 for the first, 9.02 ± 0.34 for the second.

“TGGTAATACACATACACACACACATACACATATATA [CACACA_site7312]” and “AATTGAAAAATCAGCACACACACAAATACATACATA [CACACA_site3232]” are within error of each other in “gcPBM binding intensity (ln)” value: 8.7 ± 0.42 for the first, 8.79 ± 0.54 for the second.

“GCTATATATTACAATCGTACAATATATATATATATA [XGTACX_site6730]” and “ATATATATATATATTACACACATGTGCAATTAAAAT [CACACA_site1778]” are within error of each other in “gcPBM binding intensity (ln)” value: 9.93 ± 0.35 for the first, 9.87 ± 0.2 for the second.

Going from “AATATAAGAATATATACACACATAAATACATACATA [CACACA_site4128]” to “TCTTGTATACGGCATGCATGTTAGCACATACGGACA [TGCATGCA_site146]”, the “gcPBM binding intensity (ln)” value rises from 8.6 ± 0.31 to 9.55 ± 0.35.

“TGTTCCGAAGGTTGTACACACATAGAAATATACATA [CACACA_site3874]” and “TGAATTCATAGCAGTTGTACATTGCATGAAGAAACG [XGTACX_site3312]” are within error of each other in “gcPBM binding intensity (ln)” value: 8.88 ± 0.53 for the first, 8.86 ± 0.3 for the second.

First: TTTTTAAAACCTTACATACACACAAATATATATATA [CACACA_site678]
Second: AATACTTTTTATTTAGTGCATAAGAAAATATAAATC [GTGCAC_site9875]
The “gcPBM binding intensity (ln)” value of the first is higher: 9.71 ± 0.2 for the first, 8.7 ± 0.11 for the second.

“AAAAAAAAAAATTCGGTGCAATGTAATTAATGTAAA [GTGCAC_site9588]” and “TATAAAATATGTATGAGGAATAAAATTAAAAAAAAA [TGCATGCA_negctrl_site178]” are within error of each other in “gcPBM binding intensity (ln)” value: 8.59 ± 0.34 for the first, 8.53 ± 0.4 for the second.

Compared with “TATATGTTTACTTAATGTACTTACATTTTTATAACA [XGTACX_site1100]”, “AAAATTAACCGTAACACACACACATATATATATATA [CACACA_site3964]” is higher in “gcPBM binding intensity (ln)” value: 8.51 ± 0.36 for the first, 10.1 ± 0.26 for the second.

“AAACAAAAAAACTACAGTACTTTTTTCAATTCCCCT [XGTACX_site7541]” and “TTATTAATTTTTATTTTTAAATCACAAAAGATATAA [CACACA_negctrl_site787]” are within error of each other in “gcPBM binding intensity (ln)” value: 8.57 ± 0.52 for the first, 7.95 ± 0.44 for the second.

“ACATAAATAATAAAAACACACATATGTACTTATATA [CACACA_site8581]” and “CATATTTGTATATGCACACATAAATTTTTCCATTTC [CACACA_site3467]” are within error of each other in “gcPBM binding intensity (ln)” value: 8.54 ± 0.25 for the first, 8.6 ± 0.27 for the second.

“AAATTTTTAAACAGCACACATAAATATAATATATAT [CACACA_site2208]” and “GACATTAAAATGAAATATACATATATATGTATATAT [TGCATGCA_negctrl_site601]” are within error of each other in “gcPBM binding intensity (ln)” value: 8.6 ± 0.44 for the first, 8.31 ± 0.35 for the second.

“TTACATTTTTGAAATAGATACATACACGTGTATGTA [CACACA_negctrl_site1311]” and “TATAACATAAAACACACACACATACATACACAAAAA [CACACA_site1804]” are within error of each other in “gcPBM binding intensity (ln)” value: 8.36 ± 0.36 for the first, 8.82 ± 0.55 for the second.

“AAATTTTTTTTTTAATTTTTTATTTAAAAAAAATAT [TGCATGCA_negctrl_site174]” and “GTTATAAATAAATATACACACATATATAAAATACAT [CACACA_site7146]” are within error of each other in “gcPBM binding intensity (ln)” value: 8.09 ± 0.41 for the first, 8.46 ± 0.27 for the second.

“CGCTTTATTTATATATGTACATATATATATATATAC [XGTACX_site5012]” and “AAGGCAAACAGACACACACACATATATACCTATATA [CACACA_site7077]” are within error of each other in “gcPBM binding intensity (ln)” value: 8.86 ± 0.42 for the first, 8.48 ± 0.63 for the second.

“GTTGCCATCATTTGGCGTACAGTCAAAACCAAATCT [XGTACX_site1398]” and “GTTATACACATTACATGTACAAAAGTTGCACTTCAT [XGTACX_site6023]” are within error of each other in “gcPBM binding intensity (ln)” value: 8.69 ± 0.47 for the first, 8.91 ± 0.36 for the second.

“TTTGTTCAATTTACATGTACAGATATAATCTAACAT [XGTACX_site370]” and “ATTTTTATTTTATATACACACAATAATAATATAATA [CACACA_site4015]” are within error of each other in “gcPBM binding intensity (ln)” value: 8.54 ± 0.28 for the first, 8.42 ± 0.37 for the second.

“TCTATTAAAACAAATTGTACTTATTGATAAAGAATA [XGTACX_site3645]” and “TCCTATTTTATATAATGTACATAAATATATTACATA [XGTACX_site2720]” are within error of each other in “gcPBM binding intensity (ln)” value: 8.35 ± 0.41 for the first, 8.53 ± 0.35 for the second.

“AAGAGCAACCAAATAGAAAAAGGAAAATAAAAGGAA [CACACA_negctrl_site100]” and “TTACAAATGTAGAAAAGTACATATAATAATAATTTA [XGTACX_site3044]” are within error of each other in “gcPBM binding intensity (ln)” value: 8.88 ± 0.5 for the first, 8.32 ± 0.42 for the second.

TTTAAGCGTTCACTGCTGCACTTTTATGTTGTGACC and “AAAAAAAAAAAAAGCACACACACATATGCGTATATA [CACACA_site953]” are within error of each other in “gcPBM binding intensity (ln)” value: 8.71 ± 0.51 for the first, 8.43 ± 0.33 for the second.

“GGTAGAAAATCAGTTAAACACACACCGAAAAAAAAA [CACACA_site8934]” and “ATTTGTATAATAAGTTGTACAATTCTTACAATATAA [XGTACX_site4164]” are within error of each other in “gcPBM binding intensity (ln)” value: 8.72 ± 0.5 for the first, 8.46 ± 0.22 for the second.

“ATGGATAATAATAAGTGTACACATATATTTAGAAGA [XGTACX_site244]” and “TATAAGAAATAAAACCTGATTATAAACCTGTAACCA [CACACA_negctrl_site1302]” are within error of each other in “gcPBM binding intensity (ln)” value: 8.94 ± 0.33 for the first, 8.3 ± 0.45 for the second.
